One assay deals with HSkMC. In words: cytotoxicity call (relative viability < 0.9). The conditions noted are these: 10 µM.
The subject of another assay is HepG2. The assay can be described thus: cytotoxicity call (relative viability < 0.9). The conditions noted are these: 10 µM.
A further assay deals with S. aureus RN4220. In words: growth inhibition call (relative growth <= 0.2). The conditions noted are these: 50 µM.

In the antibiotic and cytotoxicity screens of Wong et al. (2023) one finds cytotoxicity call and growth inhibition call data, which are given here for 28 compounds.

Molecules are shown by their SMILES. The list shows a part of the results.

`COc1ccc(S(=O)(=O)N(C)C[C@H]2Oc3c(NS(=O)(=O)c4ccccc4)cccc3C(=O)N([C@@H](C)CO)C[C@@H]2C)cc1`: the cytotoxicity call in the assay with HSkMC and in the assay on HepG2 was “inactive” each time. In addition, in the assay on S. aureus RN4220, the growth inhibition call is “inactive”.

Take `CC(C)NC(=O)N1Cc2cc(C(=O)NCC(F)(F)F)nc(-c3cccc(-c4cc5ccccc5o4)c3)c2[C@@H]1CCO`: the cytotoxicity call in the assay with HSkMC and with HepG2 was “inactive” in each case. Moreover, the growth inhibition call with S. aureus RN4220 is “inactive”.

In the case of `C[C@H](CO)N1C[C@H](C)[C@H](CN(C)C(=O)Nc2ccc(F)cc2)Oc2ccc(NS(=O)(=O)c3cn(C)cn3)cc2C1=O`, the cytotoxicity call in the assay with HSkMC and in the assay with HepG2 was “inactive” each time. Further, the growth inhibition call with S. aureus RN4220 is “inactive”.

For `CC(=O)N1CCN(C(=O)Cc2ccc(S(C)(=O)=O)cc2)C[C@@H](O)C1`, the cytotoxicity call with HSkMC and with HepG2 was “inactive” in each case. For the same compound, the growth inhibition call in the assay with S. aureus RN4220 was “inactive”.

Take `C[C@@H]1CCCCO[C@@H](CN(C)Cc2ccc(C(F)(F)F)cc2)[C@@H](C)CN([C@@H](C)CO)C(=O)c2cc(NS(=O)(=O)c3cn(C)cn3)ccc2O1`: the cytotoxicity call in the assay with HSkMC and in the assay on HepG2 was “inactive” in each case. The growth inhibition call in the assay with S. aureus RN4220 is “inactive”.

With `CO[C@@H]1CN(C)C(=O)c2ccc(NS(C)(=O)=O)cc2OC[C@H](C)N(C(=O)C2CCOCC2)C[C@H]1C`, the cytotoxicity call with HSkMC and in the assay on HepG2 was “inactive” each time. In the assay on S. aureus RN4220, the growth inhibition call was “inactive”.

As to `C[C@@H]1CN([C@@H](C)CO)S(=O)(=O)c2ccc(C#CCN(C)C)cc2O[C@@H]1CN(C)C(=O)C1CCCCC1`, the cytotoxicity call with HSkMC and in the assay with HepG2 was “inactive” in each case. Also, the growth inhibition call in the assay with S. aureus RN4220 was “inactive”.

Consider `C[C@H]1CN([C@@H](C)CO)C(=O)Cc2cc(N(C)C)ccc2O[C@@H]1CN(C)S(=O)(=O)c1ccc(Cl)cc1`, for which the cytotoxicity call in the assay with HSkMC and in the assay on HepG2 was “inactive” throughout. The growth inhibition call with S. aureus RN4220 is “inactive”.

As for `CN1C(=O)[C@@]2(c3cc(Cl)ccc31)[C@H](C(=O)O)[C@H]1C(=O)O[C@H](c3ccccc3)[C@H](c3ccccc3)N1[C@@H]2c1ccc(F)cc1`, the cytotoxicity call with HSkMC and in the assay with HepG2 was “inactive” each time. Besides, in the assay on S. aureus RN4220, the growth inhibition call was “active”.

On to `COc1ccc(CN(C)C[C@H]2OCCCC[C@H](C)Oc3ccc(NC(=O)c4ccncc4)cc3C(=O)N([C@@H](C)CO)C[C@H]2C)cc1`, for which the cytotoxicity call in the assay with HSkMC and in the assay with HepG2 was “inactive” each time. Besides, in the assay with S. aureus RN4220, the growth inhibition call was “inactive”.

As for `Cc1ccc(S(=O)(=O)N(C)C[C@H]2Oc3ccc(NS(=O)(=O)c4cccs4)cc3CC(=O)N([C@@H](C)CO)C[C@@H]2C)cc1`, the cytotoxicity call in the assay with HSkMC and in the assay on HepG2 was “inactive” each time. Also, the growth inhibition call in the assay on S. aureus RN4220 was “inactive”.

As to `CO[C@@H]1CN(C)C(=O)c2cc(NC(=O)CN(C)C)ccc2OC[C@@H](C)N(Cc2ccccc2F)C[C@H]1C`, the cytotoxicity call in the assay on HSkMC and in the assay with HepG2 was “inactive” throughout. Moreover, the growth inhibition call in the assay with S. aureus RN4220 was “inactive”.

As to `Cc1ccc(S(=O)(=O)N(C)C[C@@H]2OCCCC[C@@H](C)Oc3ccc(NC(=O)Nc4c(C)noc4C)cc3C(=O)N([C@H](C)CO)C[C@@H]2C)cc1`, the cytotoxicity call in the assay on HSkMC and in the assay on HepG2 was “inactive” throughout. For the same compound, the growth inhibition call in the assay on S. aureus RN4220 is “inactive”.

`O=C1O[C@@H](c2ccccc2)[C@@H](c2ccccc2)N2[C@@H](c3ccc(OCCO)cc3)[C@]3(C(=O)Nc4ccc(C#CC5(O)CCCCCC5)cc43)[C@@H](C(=O)N3CCCCCCC3)[C@H]12`: the cytotoxicity call in the assay with HSkMC and with HepG2 was “inactive” throughout. Besides, the growth inhibition call in the assay on S. aureus RN4220 is “inactive”.

For the compound `C[C@H](CO)N1C[C@H](C)[C@@H](CN(C)C(=O)Cc2ccccn2)Oc2ncc(C#CC3CCCCC3)cc2C1=O`, the cytotoxicity call in the assay on HSkMC and in the assay with HepG2 was “inactive” throughout. Moreover, the growth inhibition call in the assay on S. aureus RN4220 was “inactive”.

For the compound `NC(Cc1cc(I)c(O)c(I)c1)C(=O)O.O.O` (centres undefined), the cytotoxicity call in the assay on HSkMC and in the assay with HepG2 was “inactive” each time. Also, in the assay with S. aureus RN4220, the growth inhibition call is “inactive”.

On to `Cc1ccc(C(=O)N2CCN(c3ccc(NC(=O)COc4c(C)cc(C)cc4Br)cc3)CC2)cc1`, for which the cytotoxicity call in the assay on HSkMC and in the assay with HepG2 was “inactive” in each case. Besides, the growth inhibition call with S. aureus RN4220 was “inactive”.

Consider `COc1ccc(NC(=O)N(C)C[C@@H]2Oc3ccc(NC(=O)CCCN(C)C)cc3C(=O)N([C@@H](C)CO)C[C@@H]2C)cc1`, for which the cytotoxicity call in the assay on HSkMC and in the assay with HepG2 was “inactive” throughout. Also, in the assay on S. aureus RN4220, the growth inhibition call is “inactive”.

In the case of `C[C@H]1CN([C@@H](C)CO)C(=O)c2cc(NC(=O)Cn3cnnn3)ccc2O[C@H]1CN(C)S(C)(=O)=O`, the cytotoxicity call with HSkMC and in the assay with HepG2 was “inactive” each time. Further, the growth inhibition call in the assay on S. aureus RN4220 was “inactive”.

`C[C@H]1CN([C@@H](C)CO)C(=O)c2cc(NC(=O)Nc3ccc4c(c3)OCO4)ccc2O[C@@H]1CN(C)Cc1ccc(Oc2ccccc2)cc1`: the cytotoxicity call with HSkMC was “inactive”. Moreover, in the assay on HepG2, the cytotoxicity call was “active”. Besides, the growth inhibition call in the assay on S. aureus RN4220 is “inactive”.

Regarding `CC(C)CC#Cc1cnc2c(c1)C(=O)N([C@@H](C)CO)C[C@H](C)[C@@H](CN(C)S(=O)(=O)c1cccs1)O2`, the cytotoxicity call in the assay with HSkMC and with HepG2 was “inactive” in each case. The growth inhibition call with S. aureus RN4220 was “inactive”.

For the compound `COc1ccc(CN(C)C[C@@H]2Oc3c(NC(=O)CCCCCC(=O)Nc4ccccc4N)cccc3C(=O)N([C@H](C)CO)C[C@H]2C)cc1`, the cytotoxicity call with HSkMC and in the assay on HepG2 was “inactive” in each case. In addition, the growth inhibition call in the assay with S. aureus RN4220 was “inactive”.

For the compound `C[C@H]1CCCCO[C@H](CN(C)Cc2ccc(C(=O)O)cc2)[C@@H](C)CN([C@@H](C)CO)C(=O)c2cc(NC(=O)Nc3ccc(C(F)(F)F)cc3)ccc2O1`, the cytotoxicity call with HSkMC and in the assay on HepG2 was “inactive” each time. Also, in the assay with S. aureus RN4220, the growth inhibition call was “inactive”.

For `C[C@@H]1CN([C@@H](C)CO)C(=O)c2cc(NS(=O)(=O)c3ccc(F)cc3)ccc2O[C@@H]1CN(C)S(C)(=O)=O`, the cytotoxicity call in the assay with HSkMC and with HepG2 was “inactive” in each case. Further, the growth inhibition call in the assay with S. aureus RN4220 is “inactive”.

For the compound `CC(C)(C)c1ccc(C(=O)CCCN2CCC(OC(c3ccccc3)c3ccccc3)CC2)cc1`, the cytotoxicity call with HSkMC and in the assay with HepG2 was “active” in each case. Moreover, the growth inhibition call in the assay with S. aureus RN4220 is “inactive”.

With `C[C@@H]1CCCCO[C@@H](CN(C)C(=O)Cc2ccccc2)[C@@H](C)CN([C@@H](C)CO)C(=O)c2cc(NS(=O)(=O)c3cccs3)ccc2O1`, the cytotoxicity call with HSkMC and with HepG2 was “inactive” throughout. Moreover, the growth inhibition call in the assay on S. aureus RN4220 was “inactive”.

`CC[C@H]1OC[C@@H]2CN(C(=O)CN(C)C)CC[C@H]21`: the cytotoxicity call in the assay on HSkMC and in the assay on HepG2 was “inactive” each time. In addition, in the assay with S. aureus RN4220, the growth inhibition call is “inactive”.

Turning to `C[C@@H]1CN([C@@H](C)CO)C(=O)Cc2cc(NC(=O)Nc3cccc4ccccc34)ccc2O[C@@H]1CN(C)C(=O)Nc1ccc2c(c1)OCO2`, the cytotoxicity call in the assay on HSkMC (human skeletal muscle cells) and in the assay on HepG2 was “inactive” throughout. Moreover, the growth inhibition call with S. aureus RN4220 was “inactive”.
